From publication PMC7819943, “Rice protein-binding microarrays: a tool to detect cis-acting elements near promoter regions in rice”
Some of the results follow.

biological target: T1, OsWOX13 (Oryza sativa, UniProt Q5QMM3 1-267); assay: protein-binding microarray (RPBM); PBS, 2% BSA, 51.3 ng/ul salmon testes DNA, 50 uM zinc acetate, 200 nM TF, 25 C, 1 h; high values mean tight binding; conditions: protein: recombinant; tags: N-terminal polyhistidine and DsRed monomer fusion (pET32a); label: CyDye5-dUTP incorporated in the synthesized complementary strand; 3' TTTTT single-stranded linker to array surface; dsDNA, one strand shown
T1 sequence: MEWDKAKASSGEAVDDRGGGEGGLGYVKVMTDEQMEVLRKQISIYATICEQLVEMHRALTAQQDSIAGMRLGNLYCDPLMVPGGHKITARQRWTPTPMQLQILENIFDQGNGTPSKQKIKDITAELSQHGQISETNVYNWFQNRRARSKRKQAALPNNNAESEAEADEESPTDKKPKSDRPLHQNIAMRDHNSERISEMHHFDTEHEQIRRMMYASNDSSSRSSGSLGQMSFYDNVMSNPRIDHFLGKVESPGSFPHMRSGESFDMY
Outline: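 An Axon 4000B scanner gave the binding signal as per-feature fluorescence intensity in arbitrary units. This followed washing of a custom Agilent array that had been incubated for 1 h at 25 °C with 200 nM protein in PBS, 2% BSA, salmon testes DNA and 50 µM zinc acetate. The proteins were transcription factors fused at the N-terminus to polyhistidine and DsRed, expressed in E. coli BL21-CodonPlus and purified on Ni–NTA.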

Row | Sequence | binding signal
1 | AATGATGAAAATGGTAAAGTGGTGAAGTGTACTCAGTTCACGGAGTCACCTAGTGCAG | 3650 fluorescence intensity (a.u.)
2 | ACTGATGGGCTTGTGCTAAATATCAGCCTCAGCCACAGCACGGAGTCACCTAGTGCAG | 4230 fluorescence intensity (a.u.)
3 | ATTTATGTTAAATTTGTGATTTCAGATCACCAATATCCATCGGAGTCACCTAGTGCAG | 10900 fluorescence intensity (a.u.)
4 | AGTAATGTCACTAATAAAATTACAGCACACACATATGAAACGGAGTCACCTAGTGCAG | 5390 fluorescence intensity (a.u.)
5 | TCTCGTCGGCTCTGATTAGATTTCTTGATGTCGTGTTAGCCGGAGTCACCTAGTGCAG | 11000 fluorescence intensity (a.u.)
6 | ACTTGATTTCAGATAGATATCACGAATCTCAACATTTTCACGGAGTCACCTAGTGCAG | 11300 fluorescence intensity (a.u.)
7 | AGCTAGTTTGATTAGAAACAGAATTCAGGACAATATATGCCGGAGTCACCTAGTGCAG | 17700 fluorescence intensity (a.u.)
8 | CGGTAATTTTCTAATTTGTCTACAAACGTGGTTGCCTACACGGAGTCACCTAGTGCAG | 42400 fluorescence intensity (a.u.)
9 | TATCCTGGTCAATTGGCAAGTTGACGAAATGCCCCATGAGCGGAGTCACCTAGTGCAG | 3780 fluorescence intensity (a.u.)
10 | AACCAGATTCACCGTGATTAGTTTCACCCTAGTCTAGTCTCGGAGTCACCTAGTGCAG | 10800 fluorescence intensity (a.u.)
11 | CCCTAATTTCCCTTTCCTCGGTTAGTTGAGCGAGTGCTCTCGGAGTCACCTAGTGCAG | 12500 fluorescence intensity (a.u.)
12 | TAAGATAAATGGAGGAACAAATTGTTAGGAACCTGATTGGCGGAGTCACCTAGTGCAG | 6000 fluorescence intensity (a.u.)
13 | GAGCGATTATAAAATTAATTGCTCCGCGGCTTAAGCCGAGCGGAGTCACCTAGTGCAG | 5680 fluorescence intensity (a.u.)
14 | GGTCTCCACCCGCCAGCGTGATTGACTGTCCTTGGGCCCTCGGAGTCACCTAGTGCAG | 11500 fluorescence intensity (a.u.)
15 | AATCGTTCTAATTTCAATTAAACTTTTAAATTTTGACGTGCGGAGTCACCTAGTGCAG | 9420 fluorescence intensity (a.u.)
16 | TAGATTAATAACAAAATGAATTACAAATTTCGCATGTAAACGGAGTCACCTAGTGCAG | 4200 fluorescence intensity (a.u.)
17 | ATGATTATATCCAAAATTGAAATATTTATGATACATAAAACGGAGTCACCTAGTGCAG | 7660 fluorescence intensity (a.u.)
18 | GTTGAAATGATTAGCTTCTGTTGTTTTGTAGGGCCAAGAGCGGAGTCACCTAGTGCAG | 21100 fluorescence intensity (a.u.)
19 | GACAAATTGGTCCAGGAATGTATCAACAAATGACCGAGCACGGAGTCACCTAGTGCAG | 9540 fluorescence intensity (a.u.)
20 | CAAATAAATGGGAAGGAAAATGCTTCCATACACAGTTAGCCGGAGTCACCTAGTGCAG | 5550 fluorescence intensity (a.u.)
21 | GAAAACAAACAACTGGTGATGACTGATGACTCAGTTTCCGCGGAGTCACCTAGTGCAG | 6060 fluorescence intensity (a.u.)
22 | CACACTTGATTTTGGGCAACTTGACCATGTAAGAAAGAGCCGGAGTCACCTAGTGCAG | 3380 fluorescence intensity (a.u.)
23 | CTAATTTGCATGGTTTTAAATAATTTTAGTTTAGAATTTACGGAGTCACCTAGTGCAG | 3360 fluorescence intensity (a.u.)
24 | TATATATATATATATATATATATATATTCGACTTCTATATCGGAGTCACCTAGTGCAG | 31800 fluorescence intensity (a.u.)
25 | CCACAATTAATTTGAGATTACTGCCGTGAAGAGAGAATTCCGGAGTCACCTAGTGCAG | 5450 fluorescence intensity (a.u.)
26 | TTAAATTGCCTCGCCCCACTGACCGCCGCCGCTTGAGCTGCGGAGTCACCTAGTGCAG | 23000 fluorescence intensity (a.u.)
27 | GAGCAAGTAATTGATGGTTTTAGGAACAGGAGAATAGGACCGGAGTCACCTAGTGCAG | 24600 fluorescence intensity (a.u.)

Row | Sequence | binding signal
28 | AATAACGTGGATTCAATTATCCCTAGTTTTAAGGGTATAACGGAGTCACCTAGTGCAG | 3530 fluorescence intensity (a.u.)
29 | CATGTGAGAAGATTGATAATTAATCAGATTGCCTTTGGAACGGAGTCACCTAGTGCAG | 29900 fluorescence intensity (a.u.)
30 | AATTAATTAGTATTCCGTTCGCTTTATATTATAATAAGTACGGAGTCACCTAGTGCAG | 34900 fluorescence intensity (a.u.)
31 | ATAATCAACTTAGATTAACTAACATATATGATAAATAGGTCGGAGTCACCTAGTGCAG | 6880 fluorescence intensity (a.u.)
32 | GTAAATTTAGGGGCAATATGTAGGGGCTTATAGTACTTGCCGGAGTCACCTAGTGCAG | 5480 fluorescence intensity (a.u.)
33 | ACAACAAATGAACAATCAAATGTCATGCACAGTAAACTACCGGAGTCACCTAGTGCAG | 4990 fluorescence intensity (a.u.)
34 | GGCAATGAGATTGGAGTGAAATATGGTTGCCCAGTAGAGGCGGAGTCACCTAGTGCAG | 6380 fluorescence intensity (a.u.)
35 | CTTAAACAGACAATTATAACACGTTTATTTCTTCTGTTGACGGAGTCACCTAGTGCAG | 25100 fluorescence intensity (a.u.)
36 | GCCTAATTAATCCGTCATTAGCAAATGTTTATTGTAGCACCGGAGTCACCTAGTGCAG | 38200 fluorescence intensity (a.u.)
37 | CAGAGGGCCTAATTAACTATCTGATCCGATCAGCATACGACGGAGTCACCTAGTGCAG | 4980 fluorescence intensity (a.u.)
38 | CTTCAGATGATGAACATGTTGATTTTGTTTATCTTCCTTGCGGAGTCACCTAGTGCAG | 8250 fluorescence intensity (a.u.)
39 | GACATGATAGAAAAGTTGTGTGTATAAAAGGTTTGATGTGCGGAGTCACCTAGTGCAG | 8820 fluorescence intensity (a.u.)
40 | TATATAATTTATTTAATTGGATTTACCAGTTTAAGGGGTTCGGAGTCACCTAGTGCAG | 54300 fluorescence intensity (a.u.)
41 | CTAAATTTGCCATAAATGTTACTACCCTTTTACCTAATATCGGAGTCACCTAGTGCAG | 8380 fluorescence intensity (a.u.)
42 | ATTATATTACCAATTAAACTATTACACGCTTGAGTTGCAACGGAGTCACCTAGTGCAG | 13300 fluorescence intensity (a.u.)
43 | TATTATTGATGTCTGTAAAAGCTTCATGAATATGAGCATCCGGAGTCACCTAGTGCAG | 5690 fluorescence intensity (a.u.)
44 | AGTGATAGATGATGCTAAGTCCCAGTTGGAAGCCGTATGCCGGAGTCACCTAGTGCAG | 21300 fluorescence intensity (a.u.)
45 | CTAATAATTAAGTCAATTTTACCATGCAAGTAATAAGGTTCGGAGTCACCTAGTGCAG | 24600 fluorescence intensity (a.u.)
46 | TATGTTTGGTAATTGGCTACGGGGAATTAGGAAAGACTTGCGGAGTCACCTAGTGCAG | 14200 fluorescence intensity (a.u.)
47 | TATACCCAATTAAATGGTACATCTAAACTGCATGCATGTACGGAGTCACCTAGTGCAG | 3400 fluorescence intensity (a.u.)
48 | ACCATATTAACCACATCAATTTGATTGGTTTCATATATAACGGAGTCACCTAGTGCAG | 34100 fluorescence intensity (a.u.)
49 | CACATCGCTAATTGCTGAAATTCCATTGTTGCGAGTACTACGGAGTCACCTAGTGCAG | 13900 fluorescence intensity (a.u.)
50 | AAGGTAATTGGATGTAAACTAGATGTGAAATATAATTCTTCGGAGTCACCTAGTGCAG | 29400 fluorescence intensity (a.u.)
51 | CACGCGTGTCATGCTCCGTTGATTGGCGTCCGCTTCTATTCGGAGTCACCTAGTGCAG | 22200 fluorescence intensity (a.u.)
52 | AGAGATTATTGAATATTGTTGCGATGACTTATAATCTTATCGGAGTCACCTAGTGCAG | 5070 fluorescence intensity (a.u.)
53 | AAAGTTAATCAAATTGACTAATTAGTGCTAGATATGTCCTCGGAGTCACCTAGTGCAG | 60600 fluorescence intensity (a.u.)
54 | CTCCCAATATAATTATTTTCTATTTTCACAAACTCAGATACGGAGTCACCTAGTGCAG | 5940 fluorescence intensity (a.u.)
